Assay results: the supplement of paper PMC11417369
The list shows a part of the results.

Each sequence was assayed on PfSIP2 AP2 domain 1 (GST-tagged) (assay: gcPBM binding intensity (ln(normalized median fluorescence intensity)); higher = stronger DNA binding).
Outline: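 GST-fused DNA-binding domains of P. falciparum, expressed in E. coli, were applied at about 25 μg on average for 1 h to an Agilent 4 × 180k array of primer-extended double-stranded 36-bp intergenic genomic probes and negative controls. Binding intensity is the highest Masliner-normalised natural-log median intensity across replicate spots of either probe orientation, measured with Alexa488 anti-GST antibody and a 488 nm scan.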

Point of comparison: TGGTTTATTTATTAAGTGCATAAATGCAATATATAT, “gcPBM binding intensity (ln)” value 8.32. Against it:
- TATTTTATTTCAAATCTTAATAATTGTAATTCTTCA [XGTACX_negctrl_site442] — lower, 6.45
- TTTTAATTAGAAATCATACACACATATATATATATA [CACACA_site174] — higher, 9.02
- ATTTTTAAAATAAATACATGCATATATTTATATGTT [TGCATGCA_site394] — lower, 6.98
- TGTGTAATACATAATACACACATGTATATGTCGCAT [CACACA_site4757] — lower, 6.93
- AAAAAAAAAGAGGCGTGTACATATATAATTTAAATT [XGTACX_site6827] — lower, 6.84
- TTATTAAAGTATAACTGTACATGCGAGTAAAAGAAT [XGTACX_site7388] — lower, 7.83
- TGTTCTAATATTTGTTGTACATTTACATTTCTCTCT [XGTACX_site2585] — lower, 7.13
- ATAATAGAAACAAACAGTACACATACCTAAAAGGAA [XGTACX_site8647] — lower, 7.08
- ATTTACATAAACGTCTGTACTAATATACAATTTTCT [XGTACX_site1700] — lower, 7.02
- TATATATAGAAACACACACACATATATATATATATT [CACACA_site4115] — lower, 7.49
- CATAAAATTGTATTTTGTACACATTTTGTATACATT [XGTACX_site5705] — lower, 6.75
- TATTATATATTTAATAGTACATATAAAATAATAAGG [XGTACX_site4823] — lower, 7.04
- TATACAGATGGACACACACACATAAATAAATATATA [CACACA_site4863] — lower, 7.16
- TTTATTTTTAACAGTGCACACATAACTTAATTATAT [CACACA_site8681] — higher, 10.5
- TACTATAACCCACATACACACAAAAAAAAAAAAAAA [CACACA_site4454] — lower, 7.11
- TATAAATATGTATATGCATGTGGAATATATAATTAA [TGCATGCA_site226] — lower, 7.17
- AAATAAAACAGACACACACACACATACACAAAAAAA [CACACA_site7753] — lower, 7.17
- ATATGAGTATAAAAATGTACGGAGCAACTAAATATA [XGTACX_site620] — lower, 7.04
- ATTACAACCACATTGACATGCAAATGTAGAGGGGGA [TGCATGCA_site694] — lower, 8.02
- TGTCACCTATTTTTTTGTACGTATGTCCATTTTTTT [XGTACX_site4368] — lower, 7.11
- TTTATGTAATATACATGTACAGAATATAAAATATAT [XGTACX_site6906] — lower, 7.17
- AAAAAATATAGATGCACACACAAAAAAACAAATTAA [CACACA_site6718] — lower, 7.57
- TTAACTTCTTTAAAATGTACATATATTAAATAATAA [XGTACX_site3391] — lower, 7.05
- TATTCTTACATCACCTCACACATTTAATATTCCTTA [CACACA_site4693] — lower, 7.18
- GTATTATTATTTTATGCATGTACATTGAATTATATT [TGCATGCA_site34] — lower, 7.2
- AGATTTTGAAATTATAAAAAAATTTCACTTCATTTA [CACACA_negctrl_site888] — lower, 6.4
- ATATATATATATCAGAGTACATTCTTTAAAATATAT [XGTACX_site5915] — higher, 9.3
- ATTGTTTTGTAATATGAAAAAATTGTGTAATGTGTC [CACACA_negctrl_site1510] — lower, 7.61
- TATTATATTATACATACACACCCATATAATATGTTT [CACACA_site8191] — lower, 7.12
- AAATTCGTAATAATGTGTACATAACTATACATAATT [XGTACX_site1717] — lower, 7.08
- AAAAAATAGAATATGGGTACTAAAAAGATACAAACA [XGTACX_site4464] — lower, 7.09
- ATTTATATGAAAATATGTACTTATATAAATTTATTT [XGTACX_site53] — lower, 7.04
- TATGGAACACACCTTAATATGTGATAAAATATGATA [GTGCAC_negctrl_site718] — lower, 6.74
- GTTATTAAATAATTCACACACATATATATATATATA [CACACA_site2260] — higher, 9.61
- TATTCCTATATACAGCGTACAAAAAATAATATGTAT [XGTACX_site8112] — lower, 7.12
- CGCAACGTGAAAATACGTACACATACATTTTTATAT [XGTACX_site330] — lower, 7.03
- AAATATTATGTACGCACACACATTTTTGATATATAA [CACACA_site7755] — lower, 7.36
- TAATCGTTTTATAAATGTACAAAATTGTTATGTTAT [XGTACX_site5147] — lower, 6.93
- GGGGGAAGGTTGAAGGTGCTTGATGGAGAAAAATAT — higher, 9.43
- TTAATACATACATTCACACACACTAAATGTATATTT [CACACA_site4105] — lower, 6.99
- AATAGGATATGGTACATTTTTTGTATACTTTTTGTT [CACACA_negctrl_site1804] — lower, 6.74
- AAACAAGTAATTGTTATTATTATTATATTATTATTA [CACACA_negctrl_site402] — lower, 6.82
- ATAAATTCTATGTATACACACATATATAATATATAT [CACACA_site2689] — lower, 7.26
- TTTTTTTTTTTTGAAGTGCATGTTACGATGAACAAA [GTGCAC_site9451] — higher, 8.41
- CTAAAAAGAGAAGTGTGTCCTCAAATTAATATAATT [XGTACX_site1057] — lower, 6.84
- TCTTATATAACGAAAGTAAAATAATATGCTAAGCAT [CACACA_negctrl_site668] — lower, 6.72
- AATGAATATTAAAGGAGTACACATAATAAGTAAGAA [XGTACX_site7354] — lower, 7.77
- TATATAAAAATATACACACACAAATGTATTTATATA [CACACA_site4284] — lower, 6.88
- GAAAAAAAAAAAAATACACACAAATTGGTATAGAAT [CACACA_site380] — lower, 6.76
- AAAATAGAGTTGAATGCACACATACAAATTTTTAGG [CACACA_site9188] — lower, 7.47
- ATAAATAATTTATTCACACATACAAAAGTTTACAAA [CACACA_site5666] — lower, 7.16
- TTATTAAATTCTTTATTTAGCATATACAATAAAAGA [CACACA_negctrl_site1420] — lower, 6.8
- CGTAAACGATATAAATGTACGAATATCTATATATTA [XGTACX_site8116] — lower, 6.77
- TATATATTGCCCTTCACACACACACCGATATATATA [CACACA_site5390] — lower, 7.35
- TATTTCATCTTTTAAGAAGGTACCCATATGTCATAT [GTGCAC_negctrl_site403] — lower, 6.98
- ATATATATATATATTTGTACTTACATTTTTATTTAT [XGTACX_site4551] — higher, 8.98
- AAAAATATAACCGTTACACACAAAATAATATGAGAA [CACACA_site3773] — lower, 6.99
- ATAATAAGGTTAAGCACACATATTACATATATAACT [CACACA_site3356] — lower, 6.98
- GAACGATATATTATATGTACATATATATATATATAT [XGTACX_site394] — higher, 9.38
- TCGTTTCATAATATTGTGCACATATATATTTACAAT — higher, 9.14
- ATATTTTATATAATAGTGCAAATAATATTAAATAAT — higher, 8.4
- ATTATAATATTTAATTGTACTTGTATTTATTCCAAA [XGTACX_site6417] — lower, 6.89
- TAATAAAAAGTTGAGGTGCATATAGAGTTCTTCTTT [GTGCAC_site9508] — higher, 10
- TGCCCTTTGGTTATAACACACATGCACCCGTAAATA [CACACA_site3842] — higher, 11.9
- CACATAAAATAAGGTGCATGCAAACGAGAAAATAAA [TGCATGCA_site75] — higher, 11
- AAAAAAAATATATTACAAAACTTAGGATCCTAATAT [CACACA_negctrl_site470] — lower, 6.8
- AATAAATATATTAAAAGTACACAAATATTATTTAAT [XGTACX_site2482] — lower, 7.09
- AAGATTAAACATTGCACACAAAAACATATTTTCTAT [CACACA_site530] — lower, 7.08
- ATATATATATAATAATGTACTTATAATAGATGTGTA [XGTACX_site4677] — higher, 8.55
- AATATATAAGCTGTTCTATTCAAGAATTATATCTTA [CACACA_negctrl_site270] — lower, 6.76
- CAAAGGAAACCTATCTGTACACATATTGGGGGAAAA [XGTACX_site3502] — lower, 7.3
- AGAAGATTAAACATTGCACACAAAAACATATTTTCT [CACACA_site8072] — lower, 6.88
- AAAGGGACATATATATCACACACAAAAATTAGTCCC [CACACA_site8897] — lower, 6.9
- TAATATCTACATATATGTACATATATATATATATAT [XGTACX_site7979] — higher, 9.31
- TTATATATGTATTAATGTACATAGTTGAGAAAGGTA [XGTACX_site1511] — lower, 7.48
- GGAAGCTAATTACACACATGCATATTTTTTTTTCAA [TGCATGCA_site548] — lower, 7.04
- ATAATATAGAACAATACATGCAAATGGCTTAAATTT [TGCATGCA_site521] — lower, 6.9
- ATGGGACAGATATATACACACATATAAATATAAATA [CACACA_site6684] — lower, 6.99
- TATGTTAAAAAAAAATGTACATATGTTTTTGTTAAA [XGTACX_site4754] — lower, 6.86
- AAATGAATAATGATATACAAACAAATCATGTGTTAA [XGTACX_negctrl_site150] — lower, 6.55
- GACCCATTATTTTATTGTACTTTTATTATAACGTGA [XGTACX_site156] — lower, 7.33
- ATACATTCAAAATATACACACATATATATATAATAT [CACACA_site950] — lower, 7.13
- TTTCCCCCATATAATGAACACACACCCTCCTCATAA [CACACA_site8110] — lower, 7.83
- ATGTGTGTATACATCAATTATATATATATTATGTAT [GTGCAC_negctrl_site720] — lower, 7.08
- AAAATAAAAATAACAACACACATATACTATAATATT [CACACA_site2769] — lower, 6.98
- CATTTCATTTCTTAATGTACTTTATTCCACCACATA [XGTACX_site5943] — lower, 7.07
- ATAAATATATGAAGTTGTACAAATAATTAACATTAT [XGTACX_site5740] — lower, 6.97
- AAATTAAATAAATTTACACACTAAAAATTACATATA [CACACA_site1054] — lower, 6.88
